Reference: the RNAGym collection of RNA variant scans (doi:10.1073/pnas.2313332121)
Variants at the floor of the assay are shown more often than the library holds them.

B1: TPR 5TU (parent)
chain: GGAUCUUCUCGAUCUAACAAAAAAGACAAAUCUGCCACAAAGCUUGAGAGCAUCUUCGGAUGCAGAGGCGGCAGCCUUCGGUGGCGCGAUAGCGCCAACGUUCUCAACUAUGACACGCAAAACGCGUGCUCCGUUGAAUGGAGUUUAUCAUG

Variants of: B1
Experiment: polymerase ribozyme fitness, log enrichment relative to wild type (log ratio); higher = more active; in vitro selection for triplet polymerase activity
Summary of the method: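 In triplicate, a single round of in vitro selection was run on each mutant library, PCR-built and transcribed, covering one subunit of a heterodimeric triplet polymerase ribozyme. Frozen incubation at −7 °C followed annealing with a biotinylated primer, partner subunit and triplets, and extended constructs were then gel-excised, streptavidin-captured and taken through RT-PCR. Fitness is the logarithm of genotype enrichment over wild-type enrichment, from inverse-variance-weighted replicate averages of Illumina-sequenced inputs and outputs. […] only genotypes with ≥10 input reads and ≥1 read per output were kept.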

Variant | polymerase ribozyme fitness (log ratio)
G92C A115U | -1.86
A106C U135G G143C | ≤ -4.2
C93U C116G G124U | ≤ -4.2
G92U A120G G140A | ≤ -4.2
A91G A115U G133C | ≤ -4.2
U90C C95A G100C U134C | ≤ -4.2
U90A C125G A147C U148C | -3.99
G94C C149G | ≤ -4.2
A97G C105U A107U U130A U139G | ≤ -4.2
C103G U127A A137G | ≤ -4.2
A97U C125A | -0.436
A107C G141U U144G U146C | ≤ -4.2
C103A U144G | -2.84
C93A A142U | -3.16
G94C G126A | 0.311
U90A G136U G140C | ≤ -4.2
G88U G117U A142C | ≤ -4.2
G88C U101C A113C U139G | ≤ -4.2
A89G C125U C132U | -1.73
A91G C96G C99G C118G | ≤ -4.2
A98U G141U | 1.39

Variant | polymerase ribozyme fitness (log ratio)
G88A U127G C129U | ≤ -4.2
G88U C149U | ≤ -4.2
C95A C99A C123G | -1.33
U90G | ≤ -4.2
U90C | -2.87
U90A | -4.07
A89C C123A G128U | -3.31
C93G G100A | ≤ -4.2
C96U A113U G124U | -2.41
A89C U148C | -3.51
G92U A106C | -0.0112
G88A G117U | -3.84
A89G C95A C114U C125U | ≤ -4.2
A91G A137C G141U | ≤ -4.2
G92U U146A | -0.393
C96A U130C | 0.457
C96U C116U G140C U144G | -4.04
C95U C99G U102G U135G | ≤ -4.2
A89G G92U C96G C103A G136C G140A | ≤ -4.2
A106G U127G A138G | ≤ -4.2
C105A A107C | ≤ -4.2

Variant | polymerase ribozyme fitness (log ratio)
C93G A106C G141U C149A | ≤ -4.2
A107U U145A | -2.78
G94C A97G A121U A122U | -0.691
C93G C123U G141U | -2.27
G92A G117C | -2.82
C95U U145A | 0.0594
A91U C118A A142C U144G | ≤ -4.2
G92A U134A A142U A147G | ≤ -4.2
C93A G94U G136C U145G | ≤ -4.2
U90C G92A C123A G126A A147C | ≤ -4.2
G94A G141A A150U | ≤ -4.2
C93U C99A | -3.72
A91C G112C U146A | ≤ -4.2
G92A C103A A107G C116A G140U | ≤ -4.2
A91U G100A | ≤ -4.2
G92C A98G A115U C149G | ≤ -4.2
C96G U134G | -1.64
C93A C116G U135G | ≤ -4.2
G94A G143A | -1.01
C93U C118U | -1.84
C96G C99G G143A U148G | ≤ -4.2

Variant | polymerase ribozyme fitness (log ratio)
C96U A107G G117A | ≤ -4.2
C96U G126A | 0.845
C93U C95U C131U | -0.998
C93U A97U C125A | -2.13
G88C C114U G141U | ≤ -4.2
U90G U101C G140A | ≤ -4.2
C96G A150U | 0.451
G94A G100C A115U | ≤ -4.2
C96U G117U A120U C149A | ≤ -4.2
C93A A106C A120U | -2.8
A91C A106U | ≤ -4.2
A91C A106C | ≤ -4.2
G94A G112U | ≤ -4.2
U101A A106C A147G | -3.14
C95A C99A G100C C129G | ≤ -4.2
C105U A120U G124A | 0.877
C103G A107G A142G | ≤ -4.2
C95U C99G U104G A110G C116A A142U | ≤ -4.2
A91U C118G A120G C149U | ≤ -4.2
G94A A119U | -2.21
